Hit rate of the full screen: of about 310,000 compounds, about 2,200 (0.71%) showed an effect of 50% or more. Effects have a minus sign here. The list shows a part of the results.
molecular target: human ether-à-go-go-related gene (hERG) potassium channel (human, UniProt Q12809); assay: primary screen, population patch clamp on CHO cells stably expressing hERG
Sequence (Q12809 whole entry, looked up): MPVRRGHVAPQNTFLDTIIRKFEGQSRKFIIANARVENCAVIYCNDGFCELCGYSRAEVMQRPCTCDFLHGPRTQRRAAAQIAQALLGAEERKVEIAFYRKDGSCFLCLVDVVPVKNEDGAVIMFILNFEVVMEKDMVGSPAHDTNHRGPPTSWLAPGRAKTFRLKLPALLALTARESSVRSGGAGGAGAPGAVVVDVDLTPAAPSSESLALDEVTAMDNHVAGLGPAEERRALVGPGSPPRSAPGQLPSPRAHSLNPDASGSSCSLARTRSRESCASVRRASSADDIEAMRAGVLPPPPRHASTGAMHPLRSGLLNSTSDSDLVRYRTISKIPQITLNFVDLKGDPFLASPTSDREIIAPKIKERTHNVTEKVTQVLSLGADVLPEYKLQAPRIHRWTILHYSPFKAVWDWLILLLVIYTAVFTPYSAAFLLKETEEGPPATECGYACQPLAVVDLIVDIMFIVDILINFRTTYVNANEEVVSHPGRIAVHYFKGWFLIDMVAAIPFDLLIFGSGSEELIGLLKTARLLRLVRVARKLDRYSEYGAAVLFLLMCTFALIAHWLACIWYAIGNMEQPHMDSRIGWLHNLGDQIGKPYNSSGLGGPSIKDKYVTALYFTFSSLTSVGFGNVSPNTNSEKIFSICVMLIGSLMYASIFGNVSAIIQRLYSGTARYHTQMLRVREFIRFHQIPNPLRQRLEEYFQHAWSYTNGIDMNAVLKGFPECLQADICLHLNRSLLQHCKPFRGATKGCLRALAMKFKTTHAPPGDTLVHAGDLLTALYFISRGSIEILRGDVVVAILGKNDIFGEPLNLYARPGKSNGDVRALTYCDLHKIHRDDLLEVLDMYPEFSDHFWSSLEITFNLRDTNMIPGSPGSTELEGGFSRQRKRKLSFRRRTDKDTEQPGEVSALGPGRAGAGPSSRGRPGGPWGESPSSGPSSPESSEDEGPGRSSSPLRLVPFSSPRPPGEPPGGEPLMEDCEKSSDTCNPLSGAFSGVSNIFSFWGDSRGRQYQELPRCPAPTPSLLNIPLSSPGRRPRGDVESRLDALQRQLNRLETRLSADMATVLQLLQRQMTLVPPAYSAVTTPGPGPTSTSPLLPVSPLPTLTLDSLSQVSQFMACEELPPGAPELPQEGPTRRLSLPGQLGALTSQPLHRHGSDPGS

| SMILES | hERG current change (%, negative = inhibition) at 1uM [%] |
| --- | --- |
| Cc1cnc(C(=O)OCC(=O)c2ccc(Cl)cc2)cn1 | -2.74 |
| CCn1c(N2CCN(S(=O)(=O)c3ccccc3)CC2)nc2ccccc21 | 3.24 |
| Cc1ccc(C(=O)/C=C/Nc2ccc(S(=O)(=O)Nc3cc(C)nc(C)n3)cc2)cc1 | 22.1 |
| CCOC(=O)C1=C(C)NC(c2cccs2)C(=O)N1 (stereo not shown) | 15.4 |
| COc1ccc(-c2csc3nc(C(C)(C)C)oc(=O)c23)cc1OC | 3.7 |
| CCc1ccc(N(CC(=O)NCc2ccc(F)cc2)C(=O)c2csnn2)cc1 | -6.43 |
| O=C1CCCN1CCCNC(=S)Nc1ccc(Nc2ccccc2)cc1 | 3.08 |
| Cc1ccc(NC(=O)c2ccc(NC(=O)C3CCCCC3C(=O)O)cc2)cc1 (stereo not shown) | 13.3 |
| CCC(=O)c1c[nH]c(C(=O)N2CCN(c3ccccc3)CC2)c1 | -5.99 |
| Cl.N=c1n(Cc2ccccc2)c2ccccc2n1CC(O)COc1ccccc1 (stereo not shown) | -55.8 |
| COc1cc(CN2CCN(CC#Cc3ccccc3)CC2CCO)cc(OC)c1 (stereo not shown) | 8.01 |
| Cc1c(NC(=O)c2n[nH]c(=O)c3ccccc23)c(=O)n(-c2ccccc2)n1C | 26.3 |
| CC(CNC(=O)c1ccc(C(C)(C)C)cc1)CN(C)C.Cl (stereo not shown) | 9.28 |
| Cl.Clc1ccc(CNC2CCCC2)c(Cl)c1 | 7.35 |
| O=C(/C=C/c1cccc(Cl)c1)NCCN1CCOCC1 | 1.19 |
| CCCC1=Nc2cc(C(=O)N3CCCC3)ccc2Sc2ccc(C)cc21 | 11.7 |
| COc1ccc2nc(N/C(=N/S(=O)(=O)c3cccs3)c3ccccc3Cl)sc2c1 | -6.03 |
| OCC1(CCOc2ccccc2)CCN(Cc2nc3ccc(F)cc3[nH]2)CC1 | -15.9 |
| Cc1cc(CNC(=O)c2cc(-c3ccccc3)nc3ccccc23)nn1C | 6.44 |
| COC(=O)c1ccccc1NC(=O)/C=C/c1ccco1 | 3.42 |
| Oc1ccc2ccccc2c1CN1CCN(C/C=C/c2ccccc2)CC1 | 11.5 |
| CC(=O)Nc1nc2ccc(NC(=O)c3ccco3)cc2s1 | 8.18 |
| Cc1ccc(NC(=O)c2cccc(S(C)(=O)=O)c2)cc1 | 11.5 |

| SMILES | hERG current change (%, negative = inhibition) at 1uM [%] |
| --- | --- |
| S=c1[nH]c(-c2ccccc2)cn1/N=C/c1ccncc1 | 0.515 |
| O=C(NCc1ccccn1)Nc1ccc(Cl)cc1Cl | 16 |
| CCN(CC(N)=O)S(=O)(=O)c1ccc(F)cc1 | 0.425 |
| CCOc1ccc(NC(=O)CC2C(=O)N(c3cccc(OC)c3)C(=O)N2CCOC)cc1 (stereo not shown) | 3.67 |
| O=C(c1ncc[nH]1)c1ccccc1Cl | -4.31 |
| Fc1ccc(-c2[nH]ncc2CN(CC2CCC2)CC2CCCO2)c(F)c1 (stereo not shown) | 5.94 |
| CSc1ccccc1NC(=O)CN(C)C(C)C(=O)Nc1ccc(C#N)cc1 (stereo not shown) | -11.6 |
| CCCCN(C(=O)c1ccc(Cl)cc1)C1CC2CCC(C1)N2C.Cl (stereo not shown) | -15.6 |
| CN(C)CCCN(C(=O)c1cc(Cl)sc1Cl)c1nc2cc3c(cc2s1)OCO3.Cl | 13.8 |
| CN(CCCNC(=O)c1ccccc1F)CCCNC(=O)c1ccccc1F | 11.8 |
| CC(C)C(=O)N1CCN(c2ccccc2N)CC1 | -1.23 |
| Cc1cc(C)nc(SCc2ccccc2C#N)n1 | -2.59 |
| CCNS(=O)(=O)c1ccc(C)c(-n2cnnn2)c1C | 1.09 |
| CCC(=O)Nc1ccc(C(=O)CSc2nnc(-c3ccc(NS(C)(=O)=O)cc3)n2C)cc1OC | 12.2 |
| Cc1cc(Br)ccc1N1C(=O)CC(=O)NC1=O | 8.94 |
| COc1ccc(S(=O)(=O)Nc2cc([N+](=O)[O-])ccc2OC)cc1 | -4.26 |
| Cc1ccccc1OC1=NS(=O)(=O)c2ccccc21 | 2.4 |
| COc1cc(C(=O)Nc2ccc(S(=O)(=O)NC(C)(C)C)cc2)cc(OC)c1OC | 0.32 |
| CC(=O)N1N=C(c2ccccc2)OC1c1ccc([N+](=O)[O-])s1 (stereo not shown) | 7.51 |
| COc1ccc(-c2csc(NC(=O)C3CSC4(C)CCC(=O)N34)n2)cc1 (stereo not shown) | 20.5 |
| COC(=O)C1=NNC2(c3ccc(Cl)cc3)C(=O)N(c3ccccc3)C(=O)C12 (stereo not shown) | 8.03 |
| CC(C)C(=O)Nc1cc2c3c(c1)CCN3C(=O)CC2 | 13.1 |
| Fc1ccc(CNC(=S)Nc2cccc(Cl)c2)cc1 | 3.96 |

| SMILES | hERG current change (%, negative = inhibition) at 1uM [%] |
| --- | --- |
| COC(=O)C1=C(N)c2ccccc2C1(C#N)c1ccccc1 (stereo not shown) | 3.61 |
| CCOC(=O)C1CCCN(C(=O)CC(C)c2ccccc2)C1 (stereo not shown) | 9.14 |
| O=C(Cn1nc(C(F)(F)F)c2c1CCC2)Nc1ccccc1C(F)(F)F | 9.07 |
| COc1ccc(-c2c(C)c3cc(O)ccc3oc2=O)cc1OC | 10.8 |
| CCOC(=O)c1cnc(SCc2ccc(C(C)(C)C)cc2)nc1N | 8.91 |
| CCN(C(=O)CN1CCN(c2cccc(Cl)c2)CC1)c1c(N)n(Cc2ccccc2)c(=O)[nH]c1=O | 5.11 |
| CCOC(=O)c1c(-c2ccc(C)o2)csc1NC(=O)CN1CCC(C(N)=O)CC1 | -2.98 |
| COc1cccc(/C=N/NC(=O)c2ccc3nc[nH]c3c2)c1 | 13.5 |
| CC1Cc2cc(C3(O)C(=O)c4ccccc4C3=O)ccc2N1 (stereo not shown) | 7.72 |
| CCOC(=O)Cn1nc(C)c(NC(=O)CCc2ccc(OC)cc2)c1C | 19.6 |
| Cc1ccc(NC(=S)NN(C)c2nc(C)cnc2C)cc1 | 11.3 |
| CC(NC(=O)Cc1cccs1)c1ccncc1 (stereo not shown) | 1.08 |
| CC(C)C[C@H](NC(=O)OC(C)(C)C)C(=O)N[C@@H](CO)[C@H](O)[C@@H]1C[C@@H]1C(=O)NC1CCCCC1 | 6.78 |
| Nc1nnc(SCc2cc3c(cc2Cl)OCO3)s1 | -4.6 |
| O=c1[nH]c(N2CCN(Cc3ccccc3)CC2)nc2c1CCC2 | 11.7 |
| Cc1cc(N2C(=O)C3C4CC(c5ccccc5)C(C4)C3C2=O)no1 (stereo not shown) | 12.7 |
| CCOC(=O)c1cnc2ccc(OCC)cc2c1N1CCN(c2ccccc2)CC1 | 12.4 |
| O=C(c1ccc(S(=O)(=O)Nc2ccc(F)cc2)cc1)N1CCN(c2ccccn2)CC1 | 0.658 |
| CC(C)(C)c1ccc(C(=O)NCc2nnc(SCC(=O)NC3CCCCC3)o2)cc1 | 12.2 |
| CCN(c1ccc(OC)cc1)c1ncnc2nc[nH]c12 | 2.77 |
| Cc1ccc(S(=O)(=O)N(C)C)cc1NC(=O)CCCNC(=O)c1ccc(Cl)cc1 | 1.3 |
| Cc1ccc(-c2ccc(C)c(N)c2C)c(C)c1N | 17.4 |
| O=C(Cn1ccc2ccccc2c1=O)NCCC(=O)NC1CCN(Cc2ccccc2)CC1 | 9.97 |

| SMILES | hERG current change (%, negative = inhibition) at 1uM [%] |
| --- | --- |
| Cn1c(N2CCN(C(=O)NCc3ccccc3)CC2)nc2ccccc21 | -18.6 |
| O=C(NNC(=O)c1ccc2nonc2c1)Nc1ccc(Cl)cc1 | 8.38 |
| O=C(N/N=C/c1ccc(F)cc1)c1ccccc1 | 20.8 |
| CN(C)CC#CCC(O)(c1ccccc1)c1ccccc1 | 10.4 |
| CCN(CC1CCCO1)C(=O)c1cc(COc2ccc(F)cc2F)on1 (stereo not shown) | 2.73 |
| Cn1c(O)c(C(c2ccccn2)c2c(O)n(C)c(=S)n(C)c2=O)c(=O)n(C)c1=S | 11.6 |
| Cc1c(Cl)cccc1NC(=S)N1CCCN(Cc2ccccc2F)C1 | 6.31 |
| CN(C(=O)c1ccc(OC2CCN(S(=O)(=O)N(C)C)CC2)cc1)C1CCCCC1 | -1.59 |
| COc1ccc2oc(C(=O)OCC(=O)NC3CCCC3)c(C)c2c1 | 12.8 |
| O=C(O)CCC(=O)NNC(=O)c1ccc([N+](=O)[O-])cc1 | -5.96 |
| CCCCOc1ncnc2c1[nH]c1ccccc12 | 17.1 |
| COc1cccc(CNC(=O)C2CCCN(S(=O)(=O)c3cccc4nonc34)C2)c1 (stereo not shown) | -5.51 |
| O=C(COc1ccc(Cl)cc1)Nc1cccc(-c2ccc3nncn3n2)c1 | -36.2 |
| O=C(Cc1cccs1)Nc1ccc(-c2nnc(-c3ccccc3)o2)cc1 | -5.92 |
| O=C(c1cccc(S(=O)(=O)N2CCCC2)c1)N1CCCC(C(F)(F)F)C1 (stereo not shown) | 2.98 |
| Cc1ccc(CNC(C)(C)CO)cc1 | 2.03 |
| CC(NS(=O)(=O)c1ccc(Br)cc1)C(=O)NCc1ccc2c(c1)OCO2 (stereo not shown) | -4.47 |
| COc1ccc(CCNS(=O)(=O)c2ccc(N3CCCC3=O)cc2)cc1 | 13.7 |
| COc1ccc(S[C@@H](CCN2CC[C@H](C)CCC2=O)c2ccccc2)cc1 | 7.84 |
| CS(=O)(=O)N(CC(=O)Nc1ccc2c(c1)OCCO2)c1ccc2c(c1)OCO2 | 6.44 |
| Cc1ccc(Nc2cc(-c3ccccc3)nc3ncnn23)cc1 | 4.44 |
| O=C(COC(=O)C1CC2C=CC1C2)Nc1cccc(S(=O)(=O)N2CCOCC2)c1 (stereo not shown) | -3.17 |

— paper PMC4336329 (PLoS ONE, 2015)
